Experimental data reported in PubChem BioAssay AID686970 (National Center for Advancing Translational Sciences (NCATS), 2013).
Among all 360,000 compounds or so, about 6,000 (1.7%) were called active. This list was built around the results that the source calls inconclusive (neither active nor inactive); the mix of calls is not that of the screen. Calls follow the shape of the dose curve; as a rule, active = well fitted cell-killing curve with a large enough effect; inconclusive = small, poorly fitted or top-dose-only effect, or effect the other way; inactive = flat fitted curve, though single readings scatter. No potency is given beside an inconclusive call; the fits are too rough.

Experiment: qHTS for induction of synthetic lethality in tumor cells producing 2HG: qHTS for the HT-1080-NT fibrosarcoma cell line;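 also: NT is the 2HG producing partner of a matched IDH1 knockdown line; nearly all actives have a fitted effect of over 55% in size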;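 as to activity, negative = less viability: 0% = DMSO-treated cells and -100% = media-only wells without cells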
Conditions: HT-1080-NT fibrosarcoma viability, CellTiter-Glo ATP luminescence, 48 h; activity, negative = less viability: at 46.1 µM (top of the series) unless noted
Outline: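 750 cells/well, RPMI + 5% FBS; 2 h settle, compound pin-transfer, 48 h at 37 degrees C. CellTiter-Glo 10 min RT, luminescence. Normalized to DMSO and media-only wells.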
Potency is read from the fitted curve at half-maximal effect; tags tell the direction and shape of the fitted curve.

Question: For `O=C(CSc1cccc2cccnc12)Nc1ccccc1F`, which Potency is on record?
Answer: Its Potency is inconclusive [cytotoxic, single point].

Question: Which Potency does the source give for `Cc1cccc(NC(=O)C2CCN(S(=O)(=O)c3cccc4cccnc34)CC2)n1` here?
Answer: Its Potency is “inactive”.

Question: With `O=C1CN(C(=O)c2cc3ccccc3oc2=O)C(c2ccc(F)cc2)c2cc(Br)ccc2N1` (stereo not given) as the compound, how does the Potency read?
Answer: Its Potency is “inactive”.

Question: Which Potency does the source give for `CC(C)N(C(=O)[C@H]1C[C@H](CC(=O)NCCCN(C)C)C(=O)N2CCc3c([nH]c4cc(-c5ccco5)ccc34)[C@]12C)C(C)C` here?
Answer: The Potency was inconclusive [cytotoxic, single point].

Question: With `OCC1(Cc2ccccc2)CCN(Cc2cnc(-c3ccc(Cl)cc3)nc2)CC1` as the compound, how does the Potency read?
Answer: Its Potency is inconclusive [cytotoxic, single point].

Question: With `COc1ccccc1S(=O)(=O)Cc1ccc(C(=O)N2CCN(c3cccc(Cl)c3)CC2)o1` as the compound, how does the Potency read?
Answer: Its Potency is inconclusive [cytotoxic, single point].

Question: For `Cc1ccc2c(c1)sc[n+]2Cc1ccccc1`, which Potency is on record?
Answer: The Potency was inconclusive [cytotoxic, single point].

Question: For `O=C(Nc1cccc(-c2nc3ccccc3s2)c1)c1cccs1`, which Potency is on record?
Answer: The Potency was inconclusive [cytotoxic, single point].

Question: With `Cc1ccc(S(=O)(=O)N2CCN(Cc3ccccn3)CC2)cc1` as the compound, how does the Potency read?
Answer: Its Potency is “inactive”.

Question: With `Cc1nnc(NC(=O)CN2CCN(Cc3ccc(F)cc3Cl)CC2)s1` as the compound, how does the Potency read?
Answer: The Potency was “inactive”.

Question: With `CCn1c(NCCO)nc2c(c1=O)C(C)(CC)Cc1ccccc1-2` (stereo not given) as the compound, how does the Potency read?
Answer: The Potency was inconclusive [cytotoxic, single point].

Question: With `O=C1C(Cc2ccccc2)S/C(=N/N=C/c2ccco2)N1c1ccccc1` (stereo not given) as the compound, how does the Potency read?
Answer: Its Potency is inconclusive [cytotoxic, partial curve].

Question: For `COc1ccc(N/N=C/c2c(C(=O)O)ccc3ccccc23)cc1`, which Potency is on record?
Answer: Its Potency is inconclusive [cytotoxic, partial curve].

Question: With `CC1(C(=O)Nc2ccc(F)c(Cl)c2)Cc2c(-c3cccc(C(N)=O)c3)ccnc2O1` (stereo not given) as the compound, how does the Potency read?
Answer: Its Potency is inconclusive [cytotoxic, partial curve].

Question: With `CCOc1ccc(C(=O)CN2CCN(S(=O)(=O)c3ccc(OC)cc3)CC2)cc1` as the compound, how does the Potency read?
Answer: The Potency was “inactive”.

Question: Which Potency does the source give for `COc1ccc(-c2cnc3c(NC(C)=O)cc(-c4cc(F)ccc4OC)cn23)cc1OC` here?
Answer: Its Potency is inconclusive [cytotoxic, partial curve].

Question: With `Cc1cccc(N2CCN(C(=O)c3ccncc3)CC2)c1C` as the compound, how does the Potency read?
Answer: Its Potency is active: 9.2 µM.

Question: Which Potency does the source give for `N/C(=N\OC(=O)N1CCOCC1)c1ccc(Br)cc1` here?
Answer: Its Potency is inconclusive [cytotoxic, single point].

Question: Which Potency does the source give for `O=c1cc(C(F)(F)F)[nH]c2c(C(F)(F)F)cccc12` here?
Answer: Its Potency is inconclusive [cytotoxic, single point].

Question: Which activity, negative = less viability does the source give for `COc1ccc(C(C)C)cc1-c1cccc2nncn12` here?
Answer: Its activity, negative = less viability is inconclusive: 9.48%.

Question: For `Cc1c(C(=O)Nc2ccc(S(=O)(=O)N(C)C3CCN(C)CC3)cc2)oc2c(Cl)cccc12`, which Potency is on record?
Answer: Its Potency is inconclusive [cytotoxic, single point].

Question: Which Potency does the source give for `O=C(N/N=C/c1ccc(Cl)cc1Cl)c1n[nH]c2c1CCCC2` here?
Answer: The Potency was active: 8.2 µM.

Question: With `O=C(/C(=C/O)N=Nc1ccc(Cl)cc1)c1ccncc1` as the compound, how does the Potency read?
Answer: The Potency was inconclusive [cytotoxic, single point].

Question: With `c1ccc(Nc2cccc3c(Nc4ccccc4)cccc23)cc1` as the compound, how does the Potency read?
Answer: The Potency was inconclusive [cytotoxic, single point].

Question: Which Potency does the source give for `Cc1c(Cl)cccc1NC(=S)NNc1ncc(C(F)(F)F)cc1Cl` here?
Answer: The Potency was inconclusive [cytotoxic, single point].

Question: Which Potency does the source give for `O=c1c2cc(Br)ccc2nc(-c2cccc(C(F)(F)F)c2)n1O` here?
Answer: The Potency was inconclusive [cytotoxic, single point].

Question: Which Potency does the source give for `CCNc1nc(NCC)nc(OCCOC(=O)Nc2ccccc2)n1` here?
Answer: The Potency was “inactive”.

Question: With `CCc1ccccc1OCCCOc1ccc(OC)cc1` as the compound, how does the Potency read?
Answer: The Potency was “inactive”.

Question: With `Cc1ccc(-c2c[n+](CC(=O)Nc3nc(-c4ccccc4)cs3)c3n2CCC3)cc1` as the compound, how does the Potency read?
Answer: The Potency was inconclusive [cytotoxic, partial curve].

Question: For `COc1ccc2[nH]c(=O)c(C3c4cc(OC)c(OC)cc4CCN3C(=O)c3ccco3)cc2c1` (stereo not given), which Potency is on record?
Answer: The Potency was inconclusive [cytotoxic, single point].

Question: With `COc1ccc(-c2ccc([C@H]3[C@H]4C=CC[C@@H](C)[C@@H]4C(=O)N3Cc3ccccc3)c(F)c2)cc1OC` as the compound, how does the Potency read?
Answer: Its Potency is inconclusive [cytotoxic, partial curve].

Question: With `Cc1ccc(C)c(S(=O)(=O)ON2C(=O)c3ccccc3C2=O)c1` as the compound, how does the Potency read?
Answer: Its Potency is inconclusive [cytotoxic, single point].

Question: With `CC(C)(C)N1CC(c2nc3ccccc3n2CCOc2ccccc2)CC1=O` (stereo not given) as the compound, how does the Potency read?
Answer: The Potency was “inactive”.

Question: With `Cc1c(C(=O)N2CCC2(C)C(=O)O)oc2ccccc12` (stereo not given) as the compound, how does the activity, negative = less viability read?
Answer: The activity, negative = less viability was inconclusive: 33.4%.

Question: For `O=C(c1ccco1)N1CCN(c2ccccc2F)CC1`, which Potency is on record?
Answer: The Potency was inconclusive [rising, partial curve].

Question: For `CCC1Oc2ccc(C)cc2N(CC(=O)NCC2CCCO2)C1=O` (stereo not given), which Potency is on record?
Answer: Its Potency is inconclusive [rising, partial curve].

Question: Which Potency does the source give for `O=C(NN=Cc1cc([N+](=O)[O-])ccc1O)c1cccc2ccccc12` here?
Answer: The Potency was inconclusive [cytotoxic, partial curve].

Question: With `NS(=O)(=O)c1ccc(CCN2C(=O)CCC2=O)cc1` as the compound, how does the Potency read?
Answer: The Potency was “inactive”.

Question: For `N#CCC(=O)Nc1ccc(C(=O)NCc2cccc(Cl)c2)cc1`, which Potency is on record?
Answer: The Potency was “inactive”.

Question: For `COc1ccc(Cn2nnnc2CN(Cc2cc3ccc(C)cc3[nH]c2=O)C2CCCC2)cc1`, which Potency is on record?
Answer: Its Potency is inconclusive [cytotoxic, single point].

Question: Which Potency does the source give for `CC(=O)Nc1cc(-c2ccc(N(C)C)cc2)cn2c(-c3ccc(F)cc3)cnc12` here?
Answer: Its Potency is inconclusive [cytotoxic, single point].

Question: With `O=S(=O)(c1cccc2cccnc12)N1CCN(c2ccc(F)cc2)CC1` as the compound, how does the Potency read?
Answer: Its Potency is “inactive”.

Question: For `COc1cc(C2CC(=O)Nc3cc(C)c(C)cc32)cc(OC)c1OC` (stereo not given), which Potency is on record?
Answer: The Potency was inconclusive [cytotoxic, single point].

Question: With `Oc1ccccc1N1CCN(c2ncnc3scc(-c4ccc(F)cc4)c23)CC1` as the compound, how does the Potency read?
Answer: Its Potency is inconclusive [cytotoxic, partial curve].

Question: With `CC1(C(=O)Nc2cnc3ccccc3c2)CCN1Cc1ccccc1Cl` (stereo not given) as the compound, how does the Potency read?
Answer: The Potency was inconclusive [cytotoxic, single point].

Question: For `COC(=O)[C@H](CO)NS(=O)(=O)c1ccc(C)cc1`, which Potency is on record?
Answer: Its Potency is “inactive”.

Question: For `CCOC(=O)[C@]12CCCC=C1N(Cc1ccc3c(c1)OCO3)C(=O)[C@H](CC(=O)NCC1CCCCC1)C2`, which Potency is on record?
Answer: The Potency was inconclusive [cytotoxic, single point].

Question: Which Potency does the source give for `COc1ccc(/C=C(\C#N)C(=O)OCC(=O)NCc2ccccc2Cl)cc1` here?
Answer: The Potency was “inactive”.

Question: Which Potency does the source give for `O=C(Nc1cccc(C(F)(F)F)c1)c1ccc(-c2ccc(F)c(F)c2)c2ccoc12` here?
Answer: The Potency was inconclusive [rising, single point].

Question: For `Fc1ccc(Nc2nc(NCc3cccs3)nc3ccsc23)cc1`, which Potency is on record?
Answer: Its Potency is inconclusive [cytotoxic, single point].

Question: For `COc1c(C)cc(C(O)c2ncc(-c3ccc(Cl)cc3)[nH]2)cc1C` (stereo not given), which Potency is on record?
Answer: Its Potency is inconclusive [cytotoxic, partial curve].

Question: With `Cc1nn(C)c(C(=O)Nc2ccc(S(=O)(=O)NC34CC5CC(CC(C5)C3)C4)cc2)c1Br` as the compound, how does the Potency read?
Answer: Its Potency is inconclusive [cytotoxic, single point].

Question: Which activity, negative = less viability does the source give for `OC[C@H]1OC(O)[C@H](O)[C@@H]1O` (stereo not given in full) here?
Answer: Its activity, negative = less viability is inconclusive: 10.8%.

Question: Which Potency does the source give for `Cc1ccc(C2C3=C(NCCN=C3c3ccccc3)C(=O)N2c2ccccc2)cc1` (stereo not given) here?
Answer: The Potency was active: 11.2 µM.

Question: Which Potency does the source give for `O=C(Nc1ccc(F)cc1F)N1CCCN(c2ccc(C(F)(F)F)cn2)CC1` here?
Answer: The Potency was inconclusive [cytotoxic, partial curve].

Question: Which Potency does the source give for `c1ccc(CCNCCCOc2cccc3ccccc23)cc1` here?
Answer: Its Potency is inconclusive [cytotoxic, single point].

Question: For `OC(CNCCc1ccc(Cl)cc1Cl)COc1ccccc1` (stereo not given), which Potency is on record?
Answer: The Potency was inconclusive [cytotoxic, single point].

Question: Which Potency does the source give for `COc1cc2[nH]cc(C(=O)NCc3cccs3)c(=O)c2cc1OC` here?
Answer: The Potency was active: 20 µM.

Question: For `COc1ccc(C(=O)Nn2c(SCC(=O)NC3CCCCC3)nc3ccccc3c2=O)cc1`, which Potency is on record?
Answer: The Potency was inconclusive [cytotoxic, single point].

Question: With `Cc1ccc(SC(C)C(=O)Nc2cccnc2)cc1` (stereo not given) as the compound, how does the activity, negative = less viability read?
Answer: The activity, negative = less viability was inconclusive: 31%.

Question: For `O=C1NC(=S)N(C(=O)c2ccc(F)cc2)/C1=C/c1cccnc1`, which Potency is on record?
Answer: The Potency was inconclusive [cytotoxic, single point].

Question: Which Potency does the source give for `Cc1ccc(Nc2c(-c3ccsc3)nc3cccc(C)n23)cc1` here?
Answer: The Potency was “inactive”.

Question: For `O=C(Nc1ccc2c(c1)OCCO2)c1cnn(-c2ccccc2)n1`, which Potency is on record?
Answer: The Potency was “inactive”.

Question: With `C=CCSC1=C(C#N)C(c2cccc(OC)c2)CC(=O)N1` (stereo not given) as the compound, how does the activity, negative = less viability read?
Answer: The activity, negative = less viability was inconclusive: 36.3%.

Question: With `CCc1nc2c(OCc3ccc(Cl)cc3)cccn2c1N(C)C(=O)c1cccs1` as the compound, how does the Potency read?
Answer: The Potency was inconclusive [cytotoxic, single point].

Question: Which Potency does the source give for `Cc1nn(C)cc1CN1CCCC(C(=O)c2ccc(-c3ccccc3)c(F)c2)C1` (stereo not given) here?
Answer: Its Potency is inconclusive [cytotoxic, single point].

Question: Which Potency does the source give for `CC(O)CNCCCOc1cccc(C(F)(F)F)c1` (stereo not given) here?
Answer: The Potency was “inactive”.

Question: For `COc1ccc(NS(=O)(=O)c2cccc(NC(=O)c3ccc(S(=O)(=O)N4CCCCCC4)cc3)c2)cc1`, which Potency is on record?
Answer: Its Potency is inconclusive [cytotoxic, partial curve, poor fit].

Question: With `O=C(c1ccccc1)c1ccc(OCCn2cnc3ccccc3c2=O)cc1` as the compound, how does the Potency read?
Answer: Its Potency is inconclusive [cytotoxic, single point].

Question: With `Cc1cccc(C(=O)OCN2C(=O)c3ccccc3C2=O)c1[N+](=O)[O-]` as the compound, how does the Potency read?
Answer: Its Potency is inconclusive [rising, single point].
